B1: chr2:201680209:201680210:+_ENSG00000082153_ENST00000409600|hu_mus|FALSE|FALSE (ssRNA)
RNA: GGGAGUUCUACAGUCCGACGAUCGUCAUCUGCCAGUGUACCACCCGGGGCCAGCAUUCCGCCAGCCACCAGAAUGUCAAAGAGUGUUUCUGCAUAGCGGCGGUAGUCAAGUUUUGCUCCAGAAGCAUCAAGAAACUUAGCUACCAACAGAGGAUUGAGCAUCA
B2: chr1:58468927:58468928:-_ENSMUSG00000026034_ENSMUST00000148330|mus_mus|mus_mus_mus_hu_False|78_98 (ssRNA)
RNA: GGGAGUUCUACAGUCCGACGAUCAAUUACUGAAAAAUGAAAGAUGUACCUUAGCUAGGCCAUGUAUGAACCAAAUUACCCAAACAAAAUAAACAUGGCAAUAUAAAAAUGUUAAGAAUUUACAAAGCUGUACAAAAUAACUUACAACAGAGGAUUGAGCAUCA
B3: 126170259_126170379_3002_3pUTR_ENSMUSG00000042500_ENSMUST00000084289|mouse|control|control (ssRNA)
RNA: GGGAGUUCUACAGUCCGACGAUCCAGAAAACACAAUCUAUGAGUAUCUAUUUCUUUAACAAAAAAACCCAACUGGCUCAAUUUUGUUGAUGUAUCAGACAGGGCUGCAGAGUAGACUCAGUGCAACCAUUCUGAGCUGCUGGUCAACAGAGGAUUGAGCAUCA
B4: chr7:888175:888176:+_ENSG00000164828_ENST00000456758|hu_hu|FALSE|FALSE (ssRNA)
RNA: GGGAGUUCUACAGUCCGACGAUCUUUGUAAUUUUCUGAUUCAUAACUGAGCUUCAUUAAAACCACUUGAAAAAGUUGAACUAAAAAUGAUGAAAAAGAUGAUGCAGUGUAUCUGGCCAGCCACAAAAUCCUAUUCACGUAGAACAACAGAGGAUUGAGCAUCA
B5: 36354044_36354164_315_CDS_ENSG00000092847_ENST00000373204|human|control|control (ssRNA)
RNA: GGGAGUUCUACAGUCCGACGAUCGUGGUACACGUCGAUCUUAGGGAUGUCCACCUCAAAGUAAUUGGCCAGGAGCUUGAUUGGUUUCCCCACAGUGCCAAUGCCAGGCCGGCGAGGUGCCUGGAACACCUGCUGCAGGGGGGGCAACAGAGGAUUGAGCAUCA
B6: chr1:54531653:54531654:-_ENSMUSG00000073678_ENSMUST00000097739|mus_mus|motif|central (ssRNA)
RNA: GGGAGUUCUACAGUCCGACGAUCACACAGAAGACAAACUCCUUCCAGAGGACAGAGCGUCCUGAAGCCAGCUCUCAUAAACGGCCCUCCUGCUAAUUUAUCCACAGUCCCCAACAGUUACUUAGAUAAUCAUUACUCGAUCAACAACAGAGGAUUGAGCAUCA
B7: 99969957_99978953_1055_CDS_ENSG00000164024_ENST00000296411|human|control|control (ssRNA)
RNA: GGGAGUUCUACAGUCCGACGAUCCUCAAUUGUAAAUACAUGGCCCGACUUCAUCACUCCAACUGCUUUAUUUUUAGCAUAGUGGGGUACAUUGGGAGCUGUAUGAAAAAGCUUGUGGAUUCCAUGCCCACAAUAGCUUCGAACCAACAGAGGAUUGAGCAUCA
B8: chr10:60145988:60145989:+_ENSG00000108064_ENST00000373895|hu_hu|FALSE|FALSE (ssRNA)
RNA: GGGAGUUCUACAGUCCGACGAUCAGAACUUACAGGUUUCUUUGGACAACUUGCCAAGACAGAUGAAAACCACCUCGGUAAAUACACAAAACUGAAGGGGGAGCGCAGUCGACUUCCACAGCCGGUGCACAGCUCUGCUCCAGACAACAGAGGAUUGAGCAUCA
B9: chr2:44436386:44436387:+_ENSG00000138032_ENST00000378551|hu_hu|motif|central (ssRNA)
RNA: GGGAGUUCUACAGUCCGACGAUCCUCUGAAUCUUUUUUCACCGCUUCAUCUGAGACCUUGGGAGCAUUUGAAAAGCAAACGGGUACAAUACUCAUGUUAUCUCGACUUCCCUUGUGUAAACAAGUGUCCACUACCCAAUUGCACAACAGAGGAUUGAGCAUCA
B10: chr13:74460584:74460585:-_ENSMUSG00000021577_ENSMUST00000022062|mus_mus|FALSE|FALSE (ssRNA)
RNA: GGGAGUUCUACAGUCCGACGAUCGUUUCAUCAGUAGGAGCGGAUAGCAGGAGGUACGGUGGCACAGUCAGCCUCAUUCAAGGUCUUGUCGAUAACAGGUCUGUACUCCAAAGUAACCUUGCCAGUCUUGAUGUCCACAUAUGACAACAGAGGAUUGAGCAUCA
B11: chr17:30807540:30807541:+_ENSG00000108671_ENST00000457654|hu_mus|FALSE|FALSE (ssRNA)
RNA: GGGAGUUCUACAGUCCGACGAUCGUUCUGAAUAGUUUCCAGAGCAGCUUCAUAAGUUUUAUCUACUGGGGGUUCAUCGAAAAUGAUCAGGACACCCUCCCCCUGGUCCAAAAUCCCAUGAAACUUCUUGUCAAGAAUCAUCUGCAACAGAGGAUUGAGCAUCA
B12: chr20:57485784:57485785:+_ENSG00000087460_ENST00000306090|hu_mus|FALSE|FALSE (ssRNA)
RNA: GGGAGUUCUACAGUCCGACGAUCGUCACGGCAGUCGUUGAAGACACGGCGGAUGUUCUCAGUGUCCACGGCGCAGGUAAAGUGAGGGUAGCAGUAGUGGCGCCCAUCUCCACUAGCAGUGCUGAUUCUCAGAAACUCAUCCCGCAACAGAGGAUUGAGCAUCA
B13: chr13:99559765:99559766:-_ENSMUSG00000041685_ENSMUST00000040340|mus_mus|FALSE|FALSE (ssRNA)
RNA: GGGAGUUCUACAGUCCGACGAUCCUGAACUUCCUUUAUUAAUUCCUGUAAUUUUCUAACAAGAUCCAAAUGACAAUUUGCUAAUUUCUCUGUAGAUGUUUUGAAUACAUCCCACAUUGGUGCAAAUGUUCCAAGUUGUGAAUACAACAGAGGAUUGAGCAUCA
B14: 28194310_28195255_3168_CDS_ENSMUSG00000024219_ENSMUST00000088027|mouse|control|control (ssRNA)
RNA: GGGAGUUCUACAGUCCGACGAUCGAUGAUCUCGUAGGUCAGGUUCACAUCCACUGUGCUGAAAACGUGGCAGUAGUGGUGGCUCGUCUGCAGGUCCUUGGUGAUGUACGCGAAGGUACACAGGUCCUCUGGGUCCUGCGCGGCCAACAGAGGAUUGAGCAUCA

The list shows a part of the results.

The target of this assay is T1, UNK ZnF1-3 (human, UniProt Q9C0B0 31-174).
T1 sequence: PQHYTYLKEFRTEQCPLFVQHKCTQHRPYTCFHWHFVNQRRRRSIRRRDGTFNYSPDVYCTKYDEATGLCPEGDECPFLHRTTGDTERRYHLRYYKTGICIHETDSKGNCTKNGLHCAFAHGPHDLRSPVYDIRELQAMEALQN
As to the kind of experiment: nsRBNS (natural sequence RNA bind-n-seq); RBNS binding buffer (assumed for nsRBNS): 25 mM Tris pH 7.5, 150 mM KCl, 3 mM MgCl2, 0.01% Triton X-100, 500 ug/ml BSA, 20 U/ml SUPERase-In, 4 C; UNK is unkempt and MSI1 is Musashi-1; names of the RNAs are library labels; protein concentration not given here; high values mean tight binding.
The molecule B1 registered a binding signal of 0.598 enrichment R.

The molecule B2 displayed a binding signal of 2.84 enrichment R.

Regarding B3, the binding signal was determined as 1.13 enrichment R.

B4 had a binding signal of 1.3 enrichment R.

Molecule B5 displayed a binding signal of 0.865 enrichment R.

As for B6, the binding signal stood at 1.62 enrichment R.

For the molecule B7, the binding signal was 1.03 enrichment R.

Turning to B8, the binding signal turned out to be 0.929 enrichment R.

B9 displayed a binding signal of 0.895 enrichment R.

In turn, B10 showed a binding signal of 0.827 enrichment R.

On to B11, for which the binding signal came to 0.785 enrichment R.

The molecule B12 showed a binding signal of 0.942 enrichment R.

B13 registered a binding signal of 0.714 enrichment R.

With B14, the binding signal was determined as 0.804 enrichment R.

For the origin of these results see PMC12136788.
